In PubChem BioAssay AID1963576 (National Center for Advancing Translational Sciences (NCATS), 2024):
Out of some 46,000 compounds screened, about 60 (0.1%) were called active. About 3% were inconclusive and are not listed. Calls follow the shape of the dose curve; as a rule, active = well fitted inhibition curve with a large enough effect; inconclusive = small, poorly fitted or top-dose-only effect; inactive = no such curve, though single readings can be large or run the other way. This is one part of the list.

experiment: Primary qHTS assay for Inhibitors of ovarian cancer metastasis using an organotypic tumor microenvironment (TME) model.; also: nearly all actives have a fitted effect of over 65% in size;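 as to activity change, negative = inhibition: plate controls were DMSO wells for no effect and tomatine positive control wells for full effect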; details: SKOV3ip1-GFP adhesion/invasion on 3D omental model, fluorescence; series mostly up to 45.8 µM; activity change, negative = inhibition: at the top concentration
In short: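 qHTS, 4-pt dose (0.36-46 umol/L); SKOV3ip1-GFP, 1,200 cells/well, no FBS; primary omental fibroblast/mesothelial co-culture 48 h pre-grown; 2 h RT + 16 h 37 C; PBS wash, 4% PFA; GFP count 488/509 nm.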

Activity change, negative = inhibition, inactive:
Cc1ccc(C(=O)N2c3nc(-c4ccco4)nn3C3(CCCCC3)[C@@H]3CCCC[C@@H]32)cc1 5.83%
Cc1cc(Nc2ccc(C)c(Cl)c2)n2nc(-c3ccccc3)nc2n1 9.84%
Cc1cc(C)c(NC(=O)CN2C(=O)c3cccnc3Oc3ccc(Cl)cc32)c(C)c1 3.8%
COc1ccc(OC)c(CNC(=O)c2cc(=O)[nH]c3ccc(S(=O)(=O)N4CCCCC4C)cc23)c1 (configuration not stated) -3.51%
Cc1ccc2cccc(NC(=O)c3ccc(-c4ccc(Cl)cc4Cl)o3)c2n1 5.31%
Cn1c(=O)c2c(-c3ccccc3)n3c(c2n(C)c1=O)C(c1cc(Cl)ccc1O)Nc1ccccc1-3 (configuration not stated) -8.97%
COc1ccc(-c2nc3cc(NC(=O)COc4ccc(F)cc4)ccc3o2)cc1 -5.1%
O=C(NCCC1=CCCCC1)c1ccc2c(c1)ncn2-c1cccc(Cl)c1 4.94%
COc1ccc(S(=O)(=O)NCCc2sc(-c3ccccc3)nc2C)cc1OC 1.16%
CCOC(=O)N1CCC(NC(=O)c2cnn(-c3ccccc3)c2C2CCN(C(=O)OC(C)(C)C)CC2)CC1 6.48%
CCC(=O)Nc1ccc(S(=O)(=O)NCc2cccn2Cc2cccc(C)c2)cc1 0.842%
COc1ccccc1/C=C(\C#N)c1nc(-c2cc3ccccc3oc2=O)cs1 1.68%
COc1cccc(NC(=O)Cn2c(=O)n(Cc3nc(-c4ccccc4)no3)c(=O)c3ccccc32)c1 -4.4%
COc1ccc(N2CCN(C(=O)C3CCCN(S(=O)(=O)c4ccc5c(c4)oc(=O)n5C)C3)CC2)cc1 (configuration not stated) 7.69%
CN(Cc1ccccc1)C(=O)c1ccc(CSc2nc3cccnc3n2Cc2ccccc2)cc1 -5.28%
Cc1cccc(N2CCN(C(=O)Cc3c(C(=O)O)c(C)cn3C)CC2C)c1 (configuration not stated) -17%
COc1ccc(NC(=O)Cn2cnc3c(nc4n3CCCCC4)c2=O)cc1Cl -0.11%
CCCS(=O)(=O)Nc1cccc(-c2cn3ccsc3n2)c1 1.79%
COc1ccc(CCNC(=O)c2ccc3nc(CCc4ccccc4)oc3c2)cc1OC 1.45%
CCC(=O)NCCc1sc2nc(-c3ccc(OC)cc3)nn2c1C 8.92%
COc1ccc(C2CC(=O)Nc3c2c(C)nn3-c2nc(C)cc(C)n2)c(OC)c1OC (configuration not stated) 1.11%
COC(=O)c1c(NC(=O)COc2ccc(C(C)C)cc2)sc2c1CCCC2 11.5%
CCc1cccc(NC(=O)CCn2nc(C)cc2C)c1 0.532%
COc1ccccc1CCNC(=O)C1(c2cccs2)CCOCC1 -1.09%
COc1ccc(N2CCN(C(=O)c3noc4c3CCCCC4)CC2)cc1 -11.4%
COc1cccc(CNCc2c(C(=O)O)n(Cc3ccc(C)cc3)c3cc(C)ccc23)c1OC 3.52%
O=C(Nc1ccc2oc(-c3ccc(Br)cc3)nc2c1)c1cc2ccccc2o1 2.1%
CC(=O)c1ccc(NC(=O)c2sc(-n3nc(C)c(Cc4ccc5c(c4)OCO5)c3C)nc2C)cc1 -0.587%
Cc1ccc(NC(=O)c2ccc(-c3ccccc3)s2)cc1 -1.32%
CCC1CN(C(=O)N2CCC(C(=O)NCc3cccs3)CC2)c2ccccc2O1 (configuration not stated) -3.72%
COc1ccc(CCNC(=O)c2cnc3sc(N4CCCCCC4)nn3c2=O)cc1 2.52%
Cc1nnc(NC(=O)CSc2nc3c([nH]c4ccccc43)c(=O)n2-c2cccc(Cl)c2)s1 -11.8%
COc1ccc(C)cc1NC(=O)NCCn1nnc2cc(S(=O)(=O)N(C)C)ccc21 10.7%
COc1ccc(-c2nc3ccccc3o2)cc1NC(=O)c1cc(Br)ccc1OC -1.57%
O=C(NCCc1nc2ccccc2n1Cc1ccc(Cl)cc1)c1ccccc1 -1.44%
CCOC(=O)c1ccccc1NC(=O)c1sc2nc(-c3ccc(F)cc3)cn2c1C 12%
Cc1cc(C)cc(NCc2nnc3n2CCCCC3)c1 -6.45%
CCCN(C(=O)c1ccc2c(=O)n3c(nc2c1)CCCCC3)c1cccc(Cl)c1 6.53%
Cc1ccc2occ(CC(=O)Nc3c(C)cccc3C)c2c1 9.71%
Cc1c(NS(=O)(=O)c2ccc(C(C)(C)C)cc2)c(=O)n(-c2ccccc2)n1C 3.59%
O=C(CCNS(=O)(=O)c1ccc2c(c1)CCN2C(=O)C1CC1)Nc1ccc(Cl)cc1 -6.09%
Cc1cccc(C)c1NC(=O)CCSCCc1ccccn1 -1.47%
COc1ccc(OCC(=O)N2CCN(C(=O)c3ccc(OC)c(OC)c3)CC2)cc1 -24.3%
COc1ccc(NC(=O)CN2C(=O)COc3ccc(S(=O)(=O)NC4CCCC4)cc32)cc1OC 3.88%
Cc1cc2c(cc1S(=O)(=O)NCc1ccc(F)cc1)OCC(=O)N2 -1.8%
CSc1ccc(CCNC(=O)Cn2ncc3c([nH]c4ccccc43)c2=O)cc1 -2.09%
CCOC(=O)c1cc2c(=O)n3ccccc3nc2n(CCOC)c1=NC(=O)c1c(-c2c(F)cccc2Cl)noc1C 0.94%
O=C(c1ccccc1)n1nc(-c2ccc(Cl)cc2)nc1NCc1ccco1 -8.88%
Cc1ccc(-n2ncc3c(NC4CCCCC4)ncnc32)cc1C 29.1%
CCOc1ccc2c(c1)NC(c1ccc(OCC)c(OCC)c1)=NC(c1ccc(F)cc1)=N2 -13.8%
COc1ccccc1C(=O)NC(=O)Nc1ccc(-c2cc(C(F)(F)F)nn2-c2ccccc2)cc1 -2.55%
CCOc1ccc(CCNC(=O)c2c3c(nc4ccccc24)C(=O)N(C2CCCCC2)C3)cc1 5.64%
Cc1ccc(S(=O)(=O)N2CCCc3cc(NC(=O)c4ccc(Cl)cc4)ccc32)cc1 1.35%
CCn1c(CNC(=O)c2ccc(OC)cc2)nnc1SCC(=O)Nc1cccc(C)c1 25.2%
Cc1ccc(S(=O)(=O)NCCc2nnc3ccc(SCC(=O)Nc4c(C)cc(C)cc4C)nn23)cc1 5.64%
Cc1ccc(NC(=O)Cn2nc(C(F)(F)F)c3c2CCCC3)cc1 7.2%
COc1ccccc1NC(=O)c1cc2cc3ccc(OC)c(Cl)c3nc2s1 -6.04%
COC(=O)c1c(NC(=O)c2cc(=O)c3cc(C)cc(C)c3o2)sc2c1CCC2 5.47%
COc1ccc2ncc3c(-c4ccc(C)c(C)c4)nn(CC(=O)Nc4ccccc4)c3c2c1 -6.09%
COc1ccc(NC(=O)Cn2c(=O)n(-c3ccc(OC)cc3)c(=O)c3sc4ccccc4c32)cc1 39.7%
COc1ccc2c(CNCc3ccco3)c(C(=O)O)n(Cc3cccc(F)c3)c2c1 0.498%
COc1cccc(C(=O)Nc2nc(-c3nnn(-c4cccc(Cl)c4C)c3C)ns2)c1 -16.9%
O=C(Cn1cc(S(=O)(=O)Cc2ccccc2F)c2ccccc21)Nc1ccc(F)c(Cl)c1 -25.8%
Cc1ccc(-c2c(C(=O)Nc3ccccc3F)oc(=O)c3ccccc23)cc1 3.06%
O=C(Nc1cccc(C(F)(F)F)c1)Nc1cc(S(=O)(=O)NC2CC2)ccc1-c1ccsc1 -14.6%
CCCc1nn2c(=O)cc(COC(=O)c3ccc4c(c3)OCO4)nc2s1 7.39%
Cn1c(NCCN)nc2c1c(=O)n(Cc1ccccc1)c(=O)n2C -0.772%
CCOC(=O)c1cccc(NC(=O)C2=C(C)C(=O)OC23CCCCC3)c1 2.49%
Cc1ccc(C)c(Cn2c(SCC(=O)NCc3ccccc3)nc3ccccc32)c1 -0.75%
CCCn1c(=N)c(C(=O)NC2CCCCC2)cc2c(=O)n3cc(C)ccc3nc21 -1.41%

outcome, inactive:
O=C(CCNS(=O)(=O)c1cccc2nsnc12)Nc1ccc(F)cc1
Cc1csc2nc(-c3cccc(NC(=O)c4ccc(S(N)(=O)=O)cc4)c3)cn12
CCOc1ccc(-c2cc(C)n3nc(C(=O)Nc4cc(Cl)ccc4O)cc3n2)cc1
COc1ccc(OC)c(NC(=O)c2nnn(CC(=O)Nc3ccc(C(C)C)cc3)c2N)c1
COc1ccc(NC(=O)Cn2c(=O)oc3cc(S(=O)(=O)N4CCCC4)ccc32)cc1OC
O=c1oc2c(CN3CCOCC3)c(O)ccc2cc1-c1ccccc1
Cc1ccc(N2C(=O)CSC23C(=O)N(CC(=O)NCCc2ccccc2)c2ccccc23)cc1 (configuration not stated)
Cc1ccc(C(=O)OCc2cc(=O)n3nc(CC(C)C)sc3n2)cc1
CC(=O)N1CCc2cc(Br)cc(S(=O)(=O)CCC(=O)NCc3ccc(F)cc3)c21
COc1cn(CC(=O)Nc2ccc(C)cc2)c(CN2CCCCC2)cc1=O
Cc1cccc(NC(=O)CN2C(=O)C(c3ccc(F)cc3)=NC23CCCCCC3)c1C
CCc1ccc(N(CC)C(=O)c2cn(C)c(=O)c3cc(OC)c(OC)cc23)cc1
CCc1ccc(C(=O)c2cn(CC(=O)Nc3ccc4c(c3)OCO4)c3ccc(Cl)cc3c2=O)cc1
CC(C)(C)C1CCc2c(sc3nc(-c4cc5cc(Cl)ccc5oc4=O)[nH]c(=O)c23)C1 (configuration not stated)
CCN(CC)c1ccc(NC(=O)C2CCN(S(=O)(=O)c3c(C)noc3/C=C/c3ccccc3F)CC2)c(C)c1
Cc1ccc(CC(=O)NCc2nc(-c3ccccc3)no2)cc1
O=C(NCCc1ccccc1Cl)c1cc2ccccn2n1
CCOC(=O)c1ccc(NC(=O)c2nc(SCc3ccc(F)cc3)ncc2Cl)cc1
Cc1cc(SCC(=O)Nc2ccc(F)cc2F)nc(=O)[nH]1
CCCCn1c(=O)c2oc3ccccc3c2n(Cc2ccc(C)cc2)c1=O
COc1ccc(CNc2ncnc3c2c(-c2ccccc2)cn3-c2ccc(C)c(Cl)c2)cc1
COc1cc(C(=O)Nc2cc(C)c(O)c(-c3nc4ccccc4s3)c2)cc(OC)c1OC
COc1ccc(C(=O)Nc2ccc(-c3nc4ccccc4s3)c(Cl)c2)cc1Cl
Cn1c(NCCCO)nc2c1c(=O)n(Cc1cccc(F)c1)c(=O)n2C
CCCN(CCC)C(=O)C1CCN(c2cc(C)nc3c(-c4ccc(Cl)cc4)c(C)nn23)CC1
Cc1ccc(C)c(NC(=O)c2oc(=O)c3ccccc3c2-c2ccccc2)c1
Cc1cc2nc(-c3ccc(OCc4ccccc4F)cc3)cc(C(F)(F)F)n2n1
